± gives the uncertainty stated by the source. In all, about 9,900 compounds were measured (“viability index relative to DMSO control”: median about 1, lowest 2% from about 0.85 on). This is one part of the list.

The test system of the assay is Plasmodium falciparum NF54 stage V gametocytes. The experiment in a line: viability index relative to DMSO control (fraction); higher = less gametocyte killing. To be noted: 2.5 µM, incubation time: 72 h. In a few lines: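 Viability index is the count of red-stained particles in a well divided by the plate mean of solvent-only wells. Particles of 20–70 µm2 were counted in one imaged field per well after one to two hours with 3 µl of 2.5 µM MitoTracker Red CMXRos and 0.13% saponin. Before staining, P. falciparum NF54 stage V gametocytes in serum-free medium (0.75% gametocytemia, 1.25% hematocrit, 10 µl, 1,536-well plates) were kept with compound at 2.5 µM for 72 hr at 37°C under low oxygen.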

Where [1] appears, read: library set: Broad Institute DOS.

`COc1ccc2c3c([C@@H](CO)N(C[C@]33CCN(CC3)C(=O)c3ccc4OCOc4c3)C(=O)Nc3ccc(F)cc3)n(C)c2c1` had a viability index under setting [1] of 0.967 ± 0.057.

Regarding `C[C@@H]1CN([C@@H](C)CO)C(=O)c2cccc(N(C)C)c2O[C@@H]1CN(C)C(=O)Nc1ccc(F)cc1`, under setting [1], the viability index worked out at 0.924 ± 0.016.

Under setting [1], `COc1ccc2c3c([nH]c2c1)[C@H](CO)N(C)C[C@]31CCN(CC1)C(=O)c1ccccc1F` registered a viability index of 0.944 ± 0.024.

Regarding `COc1cccc(S(=O)(=O)Nc2ccc3c(c2)[C@@H]2C[C@@H](CC(=O)NC4CCCCC4)O[C@H](CO)[C@@H]2O3)c1`, under setting [1], the viability index stood at 1.1 ± 0.021. The same measure, in the same setting: in the case of `COc1ccc(-c2ccccc2[C@@H]2[C@@H](CO)N(C(=O)NC(C)C)[C@H]2C#N)cc1` it was 1.1 ± 0.063; in that of `Cc1noc(C)c1S(=O)(=O)Nc1ccc2c(c1)C(=O)N([C@H](C)CO)C[C@H](C)[C@H](CN(C)C(=O)NC1CCCCC1)O2`, 0.9789 ± 0.0031. The same measure, in the same setting: in the case of `C[C@@H]1CN([C@H](C)CO)C(=O)c2c(c3ccccc3n2C)-c2ccccc2CO[C@@H]1CN(C)C(=O)[C@H](Cc1ccccc1)N(C)C` it was 1.04 ± 0.09. Compound `O=C(NCC[C@@H]1CC[C@@H](NC(=O)C2CCOCC2)[C@@H](CO)O1)c1cc(Cl)cc(Cl)c1` had a viability index under setting [1] of 1.01 ± 0.12.

As to `C[C@H]1CCCCO[C@H](CN(C)C(=O)Nc2cccc3ccccc23)[C@@H](C)CN([C@@H](C)CO)C(=O)c2cc(NC(=O)CCC(F)(F)F)ccc2O1`, under setting [1], the viability index was found to be 0.993 ± 0.057. Still for that read-out and setting: in the case of `COc1ccccc1S(=O)(=O)N(C)C[C@H]1OCc2ccccc2-c2ccccc2C(=O)N([C@H](C)CO)C[C@@H]1C` it was 1.009 ± 0.0022; in that of `Cc1noc(C)c1S(=O)(=O)N(C)C[C@H]1OCCCC[C@@H](C)Oc2ccc(NC(=O)CCC(F)(F)F)cc2C(=O)N([C@@H](C)CO)C[C@H]1C`, 1.02 ± 0.045; in that of `COc1ccc2c3c([C@@H](CO)N(C[C@]33CN(C3)C(=O)Nc3ccc(F)cc3)C(=O)c3ccc(F)cc3)n(C)c2c1`, 0.905 ± 0.013. `CN1C(=O)c2cc(NS(C)(=O)=O)ccc2OC[C@@H]2O[C@@H](CC(=O)NCc3ccccc3)CC[C@@H]21`: the viability index under setting [1] stood at 1.02 ± 0.12. In turn, `O=C(CC1CC1)N1CC(=O)N2[C@H](CO)[C@H](c3ccc(/C=C/c4ccccc4)cc3)[C@@H]2C1` came in with a viability index under setting [1] of 1.056 ± 0.0063. Regarding `CCNC[C@@H]1[C@H](c2ccccc2)[C@H](CO)N1C(=O)Cc1ccccn1`, the viability index under setting [1] was determined as 1.03 ± 0.019. Still for that read-out and setting: in the case of `CN(C)C(=O)c1ccc(-c2ccc([C@H]3[C@@H]4CN(Cc5cncnc5)C[C@H]3N4)cc2)cc1` it was 1.06 ± 0.031.

Regarding `CCN(C[C@@H]1N[C@@H](CO)[C@H]1c1ccccc1)C(=O)c1ccncc1`, the viability index under setting [1] amounted to 1 ± 0.011. `CC(C)COC(=O)N(C)C[C@H]1OCc2ccccc2-c2ccccc2C(=O)N([C@H](C)CO)C[C@H]1C` came in with a viability index under setting [1] of 0.977 ± 0.015. `O=C(Nc1cc(F)ccc1F)N[C@H]1CC[C@H](CC(=O)N2CCc3ccccc3C2)O[C@H]1CO`: the viability index under setting [1] is 1.115 ± 0.0054. For the compound `CC(C)[C@H]1C/C=C/C[C@@H](C)Oc2ccccc2C(=O)N(C)[C@H](C(C)C)C(=O)N1.CC(C)[C@H]1C/C=C\C[C@@H](C)Oc2ccccc2C(=O)N(C)[C@H](C(C)C)C(=O)N1`, the viability index under setting [1] was 1.006 ± 0.0079. The compound `COc1ccc2c3c([nH]c2c1)[C@@H](CO)N(Cc1ccccc1)C[C@]31CCN(Cc2cncnc2)CC1` came in with a viability index under setting [1] of 0.849 ± 0.064. The same measure, in the same setting: in the case of `C[C@H]1CN([C@@H](C)CO)C(=O)Cc2cc(NC(=O)c3ccncc3)ccc2O[C@@H]1CN(C)C(=O)Nc1ccc(F)cc1` it was 0.932 ± 0.025.

`C/C=C/c1ccccc1[C@@H]1[C@H](C#N)N(C(=O)CN2CCOCC2)[C@H]1CO`: the viability index under setting [1] came out at 1.09 ± 0.057. Same read-out and setting: in the case of `O=C(O)C[C@H]1C=C[C@H](NC(=O)Nc2cc(F)ccc2F)[C@@H](CO)O1` it was 1.02 ± 0.017; in that of `C/C=C/c1ccccc1[C@@H]1[C@@H](C#N)N(c2nc(CC)cs2)[C@@H]1CO`, 1.09 ± 0.21; in that of `N#C[C@H]1[C@H](c2ccccc2-c2cccc(F)c2)[C@H](CO)N1C(=O)CN1CCOCC1`, 1.07 ± 0.077. In turn, `CO[C@@H](CN(C)C(=O)c1ccccc1F)[C@@H](C)CN([C@H](C)CO)S(=O)(=O)c1ccc(F)cc1` had a viability index under setting [1] of 1.02 ± 0.044. In turn, `N#C[C@@H]1N[C@H](CO)[C@@H]1c1ccc(C#Cc2ccccc2F)cc1` gave a viability index under setting [1] of 1.11 ± 0.048. On the same count and under the same terms, in the case of `O=C(CC(F)(F)F)N1C[C@H]2[C@@H](c3ccccc31)[C@@H](CO)N2C(=O)C1CCCCC1` it was 1.03 ± 0.051; in that of `N#C[C@H]1[C@@H](c2ccc(C3=CCCCC3)cc2)[C@@H](CO)N1C(=O)CN1CCOCC1`, 1.14 ± 0.032. With `N#Cc1cccc(-c2ccc([C@@H]3[C@@H](CO)N4CCCCN(Cc5ccccc5F)C[C@H]34)cc2)c1`, the viability index under setting [1] was 0.889 ± 0.028.

Consider `CC(C)NC(=O)N1CC(=O)N2[C@H](C1)[C@H](c1ccc(/C=C/c3ccccc3)cc1)[C@@H]2CO`, for which, under setting [1], the viability index came out at 1.01 ± 0.052. Compound `CC(C)(C)[S@@](=O)N1Cc2cc(C(=O)NCc3ccccc3F)nc(-c3cccc(-c4cncnc4)c3)c2[C@H]1CCO` had a viability index under setting [1] of 0.801 ± 0.1. Turning to `COc1ccc2c3c([nH]c2c1)[C@H](CO)NC[C@]31CCN(CC1)C(=O)Nc1ccc2OCOc2c1`, where the note is “library set: Broad Institute Blood Stage”, the viability index was found to be 1.01 ± 0.042. Consider `COc1ccc2c3c([nH]c2c1)[C@H](CO)N(C[C@]31CN(C1)C(=O)c1ccncc1)C(=O)NC(C)C`, for which, under setting [1], the viability index amounted to 0.97 ± 0.13. Take `CO[C@H]1CC[C@@H]2CCOc3c(C#N)cccc3C(=O)N(C)C[C@@H](OC)[C@@H](C)C(=O)N(C)C[C@H]1O2`: the viability index under setting [1] was found to be 1.0822 ± 0.00067. Same read-out and setting: in the case of `CN1c2ccc(-c3ccccc3F)cc2[C@@H]2[C@@H](CCN2C(=O)Nc2cc(F)ccc2F)[C@@H]1CO` it was 1.08 ± 0.054; in that of `CO[C@@H]1CN(C)C(=O)c2cc(NC(C)=O)ccc2OC[C@@H](C)N(C(=O)Cc2ccccn2)C[C@@H]1C`, 1.1 ± 0.017. The same measure, in the same setting: in the case of `Cc1noc(C)c1NC(=O)Nc1ccc2c(c1)CC(=O)N([C@H](C)CO)C[C@H](C)[C@H](CN(C)Cc1ccc(C(F)(F)F)cc1)O2` it was 0.9964 ± 0.0062; in that of `CC(C)(C)S(=O)N1Cc2cc(C(=O)NCc3ccc(Oc4ccccc4)cc3)nc(-c3cccc(C#CCC4CCCC4)c3)c2[C@@H]1CCO` (some centres undefined), 0.966 ± 0.018; in that of `C[C@@H]1CN([C@@H](C)CO)C(=O)c2ccccc2-c2ccccc2CO[C@H]1CN(C)C(=O)Nc1ccnc(N2CCOCC2)c1`, 1.01 ± 0.077.

The compound `COc1ccc([C@@H]2C/C=C\C[C@@H](c3ccc(F)cc3)NC(=O)CCC(=O)N2)c(OC)c1` displayed a viability index under setting [1] of 1.055 ± 0.0078. On the same count and under the same terms, in the case of `C[C@@H]1CN([C@H](C)CO)C(=O)c2cc(N(C)C)ccc2O[C@@H](C)CCCCO[C@H]1CN(C)S(=O)(=O)c1ccc(F)cc1` it was 1.04 ± 0.14; in that of `COc1ccc(CN(C)C[C@@H]2Oc3ccc(NC(=O)Nc4ccc5c(c4)OCO5)cc3CC(=O)N([C@@H](C)CO)C[C@@H]2C)cc1`, 0.927 ± 0.078.

These data come from the supplement of paper PMC4723716.
